# Assay results reported in PubChem BioAssay AID1745853 (National Center for Advancing Translational Sciences (NCATS), 2022).
# Some of the results follow. These are further read-outs of the screen, such as a control signal, another cell line or another target. No call is given for them.
# Experiments:
# Assay in all cases: Primary Screen for Target Class Profiling of Small Molecule Inhibitors of Methyltransferases
# [1] = biological target: Glycine N-methyltransferase (Homo sapiens) (UniProt Q14749); settings: purified enzyme, MTase-Glo SAH luminescence; measured here: GNMT inhibition; at 40 µM; stronger effect = lower value
# Method in brief: (§1)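 Each enzyme was reacted with SAM and its substrate, with compounds tested once at 40 uM; SAH formed was read by MTase-Glo luminescence.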
# [2] = biological target: Guanidinoacetate N-methyltransferase (Homo sapiens) (UniProt Q14353); settings: purified enzyme, MTase-Glo SAH luminescence; measured here: GAMT inhibition; at 40 µM; stronger effect = lower value
# Method in brief: as §1
# [3] = biological target: Histamine N-methyltransferase (Homo sapiens) (UniProt P50135); settings: purified enzyme, MTase-Glo SAH luminescence; measured here: HNMT inhibition; at 40 µM; stronger effect = lower value
# Method in brief: as §1
# [4] = biological target: Nicotinamide N-methyltransferase (Homo sapiens) (UniProt P40261); settings: purified enzyme, MTase-Glo SAH luminescence; measured here: NNMT inhibition; at 40 µM; stronger effect = lower value
# Method in brief: as §1
# [5] = biological target: Phenylethanolamine N-methyltransferase (Homo sapiens) (UniProt P11086); settings: purified enzyme, MTase-Glo SAH luminescence; measured here: PNMT inhibition; at 40 µM; stronger effect = lower value
# Method in brief: as §1
# On the % scale 0 is the no-effect control and ±100 the full control effect.
Structure (SMILES),"activity change, negative = inhibition [1]","activity change, negative = inhibition [2]","activity change, negative = inhibition [3]","activity change, negative = inhibition [4]","activity change, negative = inhibition [5]"
COc1ccc(CN2C(=O)CO[C@H]3CN(C(=O)C4CC4)C[C@H]32)cc1,-4.14%,-5.2%,-3.62%,-11.3%,-3.01%
CCC1c2ccc(C)n2CCN1C(=O)Nc1ccccc1C (stereo not given),0.832%,0%,-0.194%,-1.56%,-1.29%
CNC1CCC(N(Cc2cccc(-c3ccncc3)c2)C(=O)c2sc3ccccc3c2Cl)CC1 (stereo not given),-27.9%,-3.37%,-75%,-76.9%,-19.3%
NC(=O)c1ccc2nc(-c3ccc(Oc4ccc(Cl)cc4)cc3)[nH]c2c1,-11.1%,11.5%,-42.5%,-43.4%,-9.35%
CCc1ccc(CN2C(=O)c3cc4ccccc4n3CC2(C)C(=O)NCc2ccccc2OC)cc1 (stereo not given),8.66%,0%,6.7%,11%,0.832%
O=C(/C=C/c1ccc(O)cc1)OCC1=CC2OC(=O)C3=CO[C@@H](O[C@@H]4O[C@H](CO)[C@@H](O)[C@H](O)[C@H]4O)[C@H]1[C@@H]32 (stereo not given in full),-6.28%,-5.98%,7.3%,-15.4%,2%
O=C(C1CCC1)N1CCOc2ccc(CN3CCc4ccccc4C3)cc2C1,-6.62%,-7.87%,-30.4%,-14.2%,-13.9%
C=CCNC(=O)N[C@H]1CCN(C(=O)CSC)[C@@H]1C(=O)N1CCC[C@@H]1C(N)=O,-3.32%,-8.75%,-2.41%,-13.6%,8.38%
CC1(C(=O)NC2CCCC2)Cn2cnc(C(=O)NCCCc3ccccc3)c2C(=O)N1C1CC1 (stereo not given),3.76%,0%,5.94%,0.718%,3.91%
Cc1nc2cnccn2c1C(=O)NCc1ccccc1,-8.24%,-10.4%,-6.05%,-19.7%,-6.27%
CCn1c(=O)n(CC)c2cc(S(=O)(=O)Nc3ccc(Br)cc3F)ccc21,2.67%,0.517%,3.35%,-4.75%,3.6%
CN(C)C[C@@H]1CN(c2ncccn2)C[C@H]1NS(=O)(=O)Cc1ccc(F)cc1,-0.124%,1.25%,0.373%,-3.88%,13.4%
Fc1ccc(OC2CN(CC3CCCCC3)C2)c(F)c1,-2.68%,-1.52%,0.438%,-4.23%,-0.339%
Cc1c(F)cccc1NC(=O)N1C[C@@H](F)C[C@H]1C(=O)N1CCOCC1,2.1%,2.49%,0.092%,3.5%,1.02%
CCNC(=O)[C@@H]1C[C@H](N)CN1C(=O)c1cnc(-c2cccnc2)nc1C,0.212%,-2.07%,-0.711%,-1.96%,-4.91%
Cc1nc2c3ccccc3n3c(CCCC(=O)NCC(C)c4ccccc4)nnc3n2n1 (stereo not given),-9.55%,1.55%,7.67%,11.3%,2.59%
CN(CC1CCOCC1)S(=O)(=O)c1ccc(Cl)s1,0.58%,1.6%,2.33%,-2.26%,1.52%
CCn1c2c(c(=O)n1Cc1ccccc1)CCN(C(=O)c1scnc1C)C2,-4.32%,-7.35%,-2.56%,-17.8%,-10.4%
CN1C(=O)c2cc3ccccc3n2CC1(C)C(=O)NCC(=O)NCc1cccc(F)c1 (stereo not given),-5.37%,3.41%,-4.47%,4.37%,-2.93%
OCC1(CCCc2ccccc2)CCCNC1 (stereo not given),-6.59%,-9.08%,-6.5%,-9.92%,-17.5%
COc1cccc(CN2CCCC3(CNc4ccccc4[S+](=O)([O-])N3)C2)c1 (stereo not given),-67.8%,-9.03%,-5.74%,-18.8%,-12.6%
COc1ccc(N2C(=O)c3c(NC(C)=O)c4cc(F)ccc4n3CC2(C)C(=O)NC2CCCC2)cc1 (stereo not given),-2.54%,1.04%,4.51%,7.06%,1.32%
CN(CC(=O)NCc1ccccc1)S(=O)(=O)c1ccc2[nH]c3c(c2c1)CCCC3,4.42%,1.29%,5.34%,-2.9%,2.99%
CCCNC(=O)CCn1ccc2cc(S(=O)(=O)N3CCCC3)ccc21,4.95%,1.39%,6.97%,5.84%,4.19%
C=C1C[C@H](O)[C@@H](O)[C@@]2(C)C1[C@@H](O)[C@H]1OC(=O)C3[C@@H](C)[C@@H](O)[C@H](O)C2[C@]31C (stereo not given in full),4.3%,2.81%,12.9%,-10.3%,-5.39%
CSc1ccc(-c2ccc3c(c2)C(=O)N2CCN(C(=O)CCC(=O)O)C[C@@H]2C(=O)N3)cc1,-3.15%,-0.429%,0.487%,0.766%,4.97%
O[C@]1(c2ccccc2)CCN(Cc2ccncc2)C[C@H]1N1CCCC1,-15%,-9.74%,-14.1%,-13.8%,-6.79%
O=C(Nc1ccc(Cl)cc1)c1ccccc1NCc1ccncc1,-0.165%,1.59%,6.1%,-16.7%,1.01%
CCOc1ccc(-c2cc3n(n2)CC(C)(C(=O)NCCC(C)C)N(Cc2ccc(OC)cc2)C3=O)cc1 (stereo not given),1.43%,3.19%,-3.67%,-0.478%,-12.5%
